Measurements taken from ChEMBL document CHEMBL4888484, “Replenishing the malaria drug discovery pipeline: Screening and hit evaluation of the MMV Hit Generation Library 1 (HGL1) against asexual blood stage Plasmodium falciparum ,using a nano luciferase reporter read-out” (2022).
Screen size: about 150,000 compounds; about 540 (0.36%) showed an effect of 50% or more. The list shows a part of the results.

Tested on: Plasmodium falciparum
Assay: Primary screen in NF54 nanoGlo assay, in single point, at 2uM, 72h; a lower Z score goes with more inhibition
Format: functional, Erythrocyte
Details: timepoint 72 hour

Structure (SMILES)	% Inhibition	Z score
CCO[C@@H](CNC(=O)c1cscn1)c1ccccc1	3%	-0.31
CC(C)n1cc(C(=O)N[C@H]2CCOC[C@@H]2O)cn1	-18%	1.55
Cc1cc(C(=O)N2CCC3(CC2)[C@H](O)C[C@@H]3OCCO)nc(C)n1	3%	-0.46
CC(C)(CO)NC(=O)c1ccc(Cl)c(F)c1	-7%	1.11
O=C(NC1CCN(c2cc3c(nn2)CCCC3)CC1)[C@@H]1CC=CCC1	-9%	1.55
COc1ccc(OC)c(-c2cc(C(=O)NCCn3ccc(-c4ccccn4)n3)n(C)n2)c1	4%	-0.54
O=C(Cn1nc2c(Oc3cccc(F)c3)nccn2c1=O)Nc1ccc(Cl)cc1F	-20%	1.93
CCCN1CCN(Cc2ccc(Cl)cc2)[C@H]2CS(=O)(=O)C[C@H]21	-12%	1.48
Cc1ccc2c(c1C)NC(=O)C21NC(Cc2ccc(O)cc2)[C@H]2C(=O)N(CCc3ccccc3)C(=O)[C@H]21 (some centres not stated)	-11%	0.95
O=C(Nc1ccc2ccccc2c1)c1sc2cccc(Cl)c2c1Cl	-5%	0.7
N#Cc1ccncc1NC1CCC(F)C1 (configuration not stated)	-11%	2.1
Clc1ccc(OCc2noc(-c3cnccn3)n2)c(Cl)c1	-6%	0.98
O=C(C1CCCC1)N1C[C@@H]2CN(CCc3ccc(O)cc3)C[C@]2(C(=O)O)C1	-12%	1.12
C[C@H](NC(=O)C1CC2(CCC2)C1)c1ncnn1C	-1%	0.11
O=C(N1CCC(n2ccnn2)CC1)C1(Cc2ccccc2)CCC1	-11%	1.66
COc1cccc(NC(=O)[C@H](C)OC(=O)C2CCN(C(N)=O)CC2)c1	-14%	1.28
CC(C)C(=O)N1CCn2nc(CNC(=O)N[C@H](C)c3ccccc3)cc2C1	-6%	0.6
CC(C#N)(CCc1ccccc1)NC(=O)C1CC2C=CC1C2 (configuration not stated)	25%	-3.33
CC(NC(=O)N1CCC[C@H]1CN1CCOCC1)c1nc(Cc2ccccc2)no1 (some centres not stated)	4%	-0.7
CCc1ccc(-c2cc(C(=O)NCc3ccncc3)c3ccc(Cl)c(C)c3n2)cc1	-6%	1.06
CCn1c(CN2CCN(C3CCN(C(C)C)CC3)[C@@H](CCO)C2)nc2ccccc21	-11%	1.3

Structure (SMILES)	% Inhibition	Z score
Cc1ccccc1CS(=O)(=O)N[C@H](CN)CC(C)C	12%	-1.27
CCCn1nccc1C(=O)N(C)Cc1csc(-c2cccs2)n1	-2%	0.37
CCC(=O)N1CCO[C@@H](COc2ccc(C)cc2)C1	-13%	1.29
O=C(Nc1cccc(C(F)(F)F)c1)NC1CCC(CC2CCC(NC(=O)Nc3cccc(C(F)(F)F)c3)CC2)CC1 (configuration not stated)	-10%	1.05
Cc1cc(C(=O)NCc2ccco2)ccc1N(C)S(C)(=O)=O	-4%	0.59
O=C1CN(C(=O)c2ccc(-c3cnn(CC4CC4)c3)cc2)CCN1	-17%	2.25
CCN(CC)CCNC(=O)C1CCN(c2c(NC(C)=O)c(C)nn2-c2ccc(Cl)cc2)CC1	-1%	0.25
CO[C@H]1CC[C@H](NC(=O)c2ccc(F)cc2O)CC1	-11%	1.31
Cc1noc(C)c1CCC(=O)N1C[C@H](NS(C)(=O)=O)[C@@H](C(C)C)C1	6%	-0.73
CCn1ncnc1CN1CCN(C)[C@H](c2ccccc2)C1	16%	-2.08
COc1ncc(CNC(=O)[C@H]2CCc3cnc(C)n3C2)cc1Cl	-4%	0.84
CC(C)OCC(=O)Nc1nccs1	-8%	1.18
Cc1cc(C)cc(COC(=O)CN2CCS(=O)(=O)CC2)c1	-24%	2.24
O=S(=O)(C1CC1)N1CC2(CCC2)c2ccccc21	-2%	0.2
N#Cc1sc2ccccc2c1N1CCC(N2CCCNC2=O)CC1	24%	-3.22
CCn1cnnc1CN(C)c1nccc(-c2c(C)nn(-c3ccccc3)c2C)n1	-1%	0.08
Cc1ccccc1CCNCc1c(C(=O)O)c(C)n(-c2ccc(Cl)cc2)c1C	-7%	0.94
COc1ccc(C(=O)N(CC(=O)N2CCCN(c3ccc(-c4ccc(OC)c(OC)c4)nn3)CC2)Cc2ccco2)cc1	3%	-0.5
COc1ccccc1CCn1c(C)cc(=O)c(C(=O)N[C@@H](C)c2cccs2)c1C	3%	-0.39
O=C(NCC[C@H](O)C1CC1)NC1CCOCC1	-3%	0.47
